The source of these data is the antibiotic and cytotoxicity screens of Wong et al. (2023).

The other results are listed elsewhere or left out.

This assay relates to HepG2. Briefly: cytotoxicity call (relative viability < 0.9). Particulars: 10 µM.
As to `CO[C@@H](CN(C)C(=O)Nc1ccc(C(F)(F)F)cc1)[C@H](C)CN(Cc1ccccc1Cl)[C@H](C)CO`, the cytotoxicity call was “inactive”.
As to `C[C@H](CO)N1C[C@H](C)[C@H](CN(C)C(=O)Cc2cccnc2)Oc2cc(-c3cncnc3)ccc2S1(=O)=O`, the cytotoxicity call is “inactive”.
For `C[C@@H]1CN([C@H](C)CO)C(=O)c2cc(NC(=O)c3ccccc3)ccc2O[C@@H](C)CCCCO[C@@H]1CN(C)C(=O)c1ccccc1` the value was “inactive”; for `CO[C@H]1CN(C)C(=O)c2cc(NS(C)(=O)=O)ccc2OC[C@@H](C)N(C(=O)CN(C)C)C[C@@H]1C`, “inactive”.
Then `NC(=O)CC1=NC(=O)CS1`, with “inactive”.
For `C[C@@H]1CN([C@@H](C)CO)C(=O)c2cc(NC(=O)CCCN(C)C)ccc2O[C@@H]1CN(C)S(=O)(=O)c1cccs1` the value was “inactive”; for `C[C@H]1CN([C@@H](C)CO)S(=O)(=O)c2ccc(Br)cc2O[C@H]1CN(C)S(=O)(=O)c1ccccc1`, “inactive”.
For `C[C@H]1CN([C@@H](C)CO)C(=O)Cc2cc(NC(=O)Nc3cccc4ccccc34)ccc2O[C@@H]1CN(C)C(=O)NC1CCCCC1`, the cytotoxicity call is “inactive”.
For `COc1ccc(-c2ccc3c(c2)O[C@H](CN(C)CC2CCOCC2)[C@H](C)CN([C@@H](C)CO)S3(=O)=O)cc1` the value was “inactive”; for `C[C@H](CO)N1C[C@H](C)[C@H](CN(C)Cc2ccc(C(=O)O)cc2)Oc2ccc(NC(=O)c3ccncc3)cc2CC1=O`, “inactive”.
With `C[C@@H]1CCCCO[C@@H](CN(C)S(=O)(=O)c2cccs2)[C@@H](C)CN([C@@H](C)CO)C(=O)c2cc(NC(=O)CCC(F)(F)F)ccc2O1`, the cytotoxicity call is “inactive”.
